{
  "source": "PubChem BioAssay AID1918937",
  "about": "(Molecular Pharmacology Branch, DTP, NCI, 2023)",
  "test_system": "521955-158-R2-J5-PDC complex spheroid viability",
  "test": "Anticancer human tumor 521955-158-R2-J5-PDC patient-derived pancreatic carcinoma cell line growth inhibition",
  "conditions": "for viability, T/C: stronger effect = lower value",
  "from_the_text": "Multicellular complex tumor spheroid response to LSD1 Inhibitor Iadademstat in combination with a variety of drugs and investigational agents in selected tumor cell lines\nThe current study was undertaken to assess response to LSD1 inhibitors in combination with standard-of-care drugs and investigational agents in solid tumor complex spheroid models as well as in the K-562 leukemia. Complex spheroids include a stromal component modeled by human endothelial cells (HUVEC) and fibroblasts modeled by human mesenchymal stem cells (MSCs). The concentration ranges selected for each drug and investigational agent were based upon clinically achievable concentrations if the clinical Cmax of the agent was known.\nCompounds. The drugs and investigational agents used in this study are listed on Table 1. All of the agents used, including staurosporine (NSC755774) and gemcitabine (NSC613327), were obtained from the Developmental Therapeutics Program, NCI. FDA-approved anticancer drugs are available from the NCI at http://dtp.nci.nih.gov/branches/dscb/oncology_drugset_explanation.html. Drugs and investigational agents were >95% pure by proton nuclear magnetic resonance (NMR) and liquid chromatography/mass spectrometry (LC/MS). Stock solutions were prepared at 400x in DMSO, stored at -70 degrees C, and diluted in fresh medium prior to their use. The final concentration of DMSO in cell culture wells never exceeded 0.25% (v/v). The FDA-approved anticancer drug set is available from the Developmental Therapeutics Program at https://dtp.cancer.gov/organization/dscb/obtaining/available_plates.htm. All drugs and investigational agents were tested over a range starting from a high concentration at or near the clinical Cmax and decreasing in half-log increments. If the clinical Cmax for an agent had not been determined, the highest concentration tested was 10 microM.\nCell Lines. The patient-derived cancer cell (PDC) lines: 292921-168-R-J2-PDC, K24384-001-R-PDC, and 521955-158-R2-J5-PDC pancreatic carcinomas, 556581-035-R-J1 ovarian carcinoma, 324938-238-R-J1-PDC, 855422-203-R-J1-PDC and 883617-216-R-J1-PDC urothelial bladder carcinomas, 743489-274-T-PDC renal cell carcinoma, 138582-R-J1 Merkel cell tumor, K60290-347-R-J1 and K57222-313-R-J1-PDC glioblastomas, 653999-131-R-J2-PDC, LG0703-F948-PDC, and 349418-098-R-PDC non-small cell lung carcinomas, 885512-296-R-J2-PDC, 171881-019-R-J1-PDC breast carcinomas and 186277-243-T-J2-PDC and 233499-124-R-J2-PDC colon carcinomas were obtained from the NCI Patient-Derived Models Repository (PDMR, https://pdmr.cancer.gov). The established cell lines NCI/ADR-RES (RRID:CVCL_14520 and OVCAR-5 (RRID:CVCL_1628) ovarian carcinomas, 786-O (RRID:CVCL_1051) and A498 (RRID:CVCL_A498) renal cell carcinoma, NCI-H211 (ATCC, cat. CRL-5824; RRID:CVCL_1529), NCI-H196 (ATCC, cat. CRL-5823, RRID:CVCL_1509), SW 1271 (ATCC, cat. CRL-2177, RRID:CVCL_1716) and NCI-H1876 (ATCC, cat. CRL-5902, RRID:CVCL_1503) small cell lung carcinomas, MDA-MB-231 (RRID:CVCL_0062) and MDA-MB-468 (RRID:CVCL_0419)breast carcinomas (10-12). Pooled donor human umbilical vein endothelial cells (HUVEC, Lonza, cat. CC-2519) and human mesenchymal stem cells (hMSC, Lonza, cat. PT-2501) were purchased from Lonza (Walkersville, MD).\nCell Culture. All cells were maintained in an incubator at 37 degrees C and 5% CO2 with 95% humidity. The PDC lines were cultured according to standard operating procedures established by the NCI PDMR (https://pdmr.cancer.gov). Briefly all PDCs were thawed and cultured in Matrigel-coated flasks prepared with a working solution of 1X Ham's F-12 nutrient mix, without supplementation (Invitrogen, Waltham, MA, cat. 11765054), 100 U/mL penicillin-streptomycin (Invitrogen, cat. 15140122), and 2.5% Matrigel (Corning Inc., Corning, NY, cat. 354248) for the first three passages. […]",
  "note": "Not every entry of the source has a single result; some have several. Only these are listed. An entry can have further records. Results that share an entry are repeats across runs, samples, wells, individuals or studies. Signs of the kind (2×) say how often a value occurs here.",
  "data": [
    {"compound": "NC1CC1c1ccc(-c2cccc(O)c2)cc1", "note": "(stereo not given);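 further: spheroids exposed to agents for seven days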;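 on viability, T/C: percent of DMSO vehicle control luminescence viability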", "values": [
      {"measurement": "viability, T/C", "setting": "compound alone 0.316 µM", "result": "81, 88.1 (2×), 81.8, 81.5, 93.1, 87.8, 95.2, 77.1, 86.8, 87.4, 72.8, 91.1, 78.8, 87.7, 89.9, 83.2, 83.1, 81.9, 81.3, 97.2, 78.3, 82.7, 88.8, 49.8%"},
      {"measurement": "viability, T/C", "setting": "compound alone 1 µM", "result": "73.2, 87.6, 83, 75.8 (2×), 84.9 (2×), 80.4, 82.4, 81.3, 70.2, 75, 78.2, 80.9, 79.4, 93.7, 78.8, 81.9, 80.1, 85.4, 79.7, 74.5, 65.4, 58.6%"},
      {"measurement": "viability, T/C", "setting": "compound alone 3.16 µM", "result": "75.4, 82.7, 82.9, 97.2, 89.7, 95, 92.4, 87.5, 86.7, 72.3, 82.1 (2×), 79.4 (2×), 89.2, 75.7, 89, 88.3, 92.5, 76.6, 84.5, 90.4, 86.1, 74.5, 52.2%"},
      {"measurement": "viability, T/C", "setting": "compound alone 10 µM", "result": "73.7, 83.6, 96.3, 82.4, 86.9, 97, 88.6 (2×), 84.8, 74.9, 91.3, 82.9, 89.3, 93.2, 80.8, 97.3, 94.8, 92.4 (2×), 103, 79.6, 86.8, 86.6, 74.3, 63.4%"}
    ]},
    {"compound": "O=C(C=Cc1cccc(S(=O)(=O)Nc2ccccc2)c1)NO", "values": [
      {"measurement": "viability, T/C", "setting": "compound alone 3 µM", "result": "103% and 0.3%"}
    ]},
    {"compound": "NC1CCC(NC2CC2c2ccccc2)CC1", "note": "(stereo not given)", "values": [
      {"measurement": "viability, T/C", "setting": "compound alone 0.1 µM", "result": "89.8, 96.4, 115, 93.8, 102 (3×), 110 (3×), 114, 107, 99.5, 101, 100, 99.4, 94.5, 104, 89.7, 92.3, 87.7, 96.3, 96.6, 95.4, 85.4%"},
      {"measurement": "viability, T/C", "setting": "compound alone 1 µM", "result": "86.3, 91.3, 94.3, 92, 92.9, 91.8, 102, 106 (2×), 99.6, 88.6, 95.1, 94, 90, 93.6, 90.6, 101, 98.5, 89.6, 86.4, 85.1, 92.1, 92.4, 75.7, 83.4%"},
      {"measurement": "viability, T/C", "setting": "compound alone 3.16 µM", "result": "86.3, 87.9, 97.7, 94.7, 97.9, 106, 104 (2×), 90.3, 111, 99.6, 99.8, 93.8, 96.6, 96.3, 95.9, 93.6, 81, 86.7, 92.2, 99.1, 91.4, 84.9%"},
      {"measurement": "viability, T/C", "setting": "compound alone 10 µM", "result": "85.1, 91.7, 95.4, 98.5, 97.9, 94.3, 103, 91.8, 113, 96.8, 93.8, 92.2, 95, 95.8, 109, 99.1, 91.5, 78.4, 91.1, 104, 101, 78.3, 78.2%"}
    ]},
    {"compound": "O=C(C=Cn1cnc(-c2cc(C(F)(F)F)cc(C(F)(F)F)c2)n1)NNc1cnccn1", "values": [
      {"measurement": "IC50", "setting": "compound alone", "result": "< 3.16 nM and 182 nM"}
    ]}
  ]
}
